Results as given in article PMC12136788.
The other results are listed elsewhere or left out.

B1: chr4:183512276:183512377:+|3pUTR|ENSG00000168556|unk|FALSE|unique (ssRNA)
RNA: GGGAGUUCUACAGUCCGACGAUCCUGCUUGUUUUGGGAAAAAAAAAUGCUUUUUUUCUCUUCUAGCUCUCCUGUGUGACUUUUAGGCAUGUCAUUUCACCUUGUCUGGGUGUCAGGUCAUUCACCUGUAAAAUGAGUUGGCUUCAACAGAGGAUUGAGCAUCA
B2: chr9:125437660:125437767:-|3pUTR|ENSG00000119487|unk|FALSE|unique (ssRNA)
RNA: GGGAGUUCUACAGUCCGACGAUCUGAUGUCCUUACUGUCCCCAGCCAGGGCCGGGGACCGGUGUUUCACUGAGGACCUGCAUUAGAAACAUUUUUUAAAUUGUUGUACAGGAAGAGAUGUGUCUAAAACAGCAUCUUAAAGCUCAACAGAGGAUUGAGCAUCA
B3: chrX:41141081:41141111:+|CDS|ENSG00000124486|msi1_unk|FALSE|overlapping (ssRNA)
RNA: GGGAGUUCUACAGUCCGACGAUCCACUCUUCAUACAGUGAAAAAGUACUUUCUUCCAAUAAUAGAAAUGGUUCCACAGUUUUUAGAAAACUUAACUGAUGAAGAACUGAAAAAAGAAGCAAAGAAUGAAGCCAAAAAUGAUGCCAACAGAGGAUUGAGCAUCA
B4: chr7:30424526:30425710:-|three_prime_utr|ENSG00000106100|control|control|control (ssRNA)
RNA: GGGAGUUCUACAGUCCGACGAUCAAACUCCCUAAGUACCCGCUACAAUUCUGCAGAAAAAGAAUGUGUCUUGCGAGCUGUUGUAGUUACAGUAAAUACACUGUGAAGAGACUUUAUUGCCUAUUAUAAUUAUUUUUAUCUGAACAACAGAGGAUUGAGCAUCA
B5: ENSG00000136451:be:win_351|CDS|ENSG00000136451|bound_else_gene|NA|bound_elsewhere_windowed (ssRNA)
RNA: GGGAGUUCUACAGUCCGACGAUCUACCAUCGCUGGGGACAGCAGCCGAACUUCGUUGGUCUCGACCAUUGCAGGCAUCUUGUCAACAGUCACUACAUCUUCCUCGGGCACCAACCCCAGUAGCAGUGCCAGCACCACAGCUAUCAACAGAGGAUUGAGCAUCA
B6: chr16:14644374:14644495:+|CDS|ENSG00000103429|unk|total|mutant (ssRNA)
RNA: GGGAGUUCUACAGUCCGACGAUCAACACAAUGGACCUUGAGAGAGAUGAACCUCUCAAAAGCACCGGCCCUCAGAUUUCUGUCCGUGAAUUUUCUUGCCACUGCUGCUACGACAUCCUGGUUAACCCCACCACCUUGAACUGUCAACAGAGGAUUGAGCAUCA
B7: chr1:11013840:11013957:+|CDS|ENSG00000120948|unk|total|mutant (ssRNA)
RNA: GGGAGUUCUACAGUCCGACGAUCGGCGUGUGGGCUUCGCUACAGGAAUCCAGUGUCUCAGUGUAUGAGAGGUGUCCGGCUGGCCGAAGGAAUUCUGCAUGCCCCAGAUGCUGGCUGGGGAAAUCUGGUGUAUGUUGUCAACUACAACAGAGGAUUGAGCAUCA
B8: chr17:68278117:68278284:-|CDS|ENSG00000108932|unk|FALSE|unique (ssRNA)
RNA: GGGAGUUCUACAGUCCGACGAUCGCUUUGUUCCAAAGCCAAUGUGUAUACUGAAGUGCCUGAUGGAGGAUGGGGCUGGGCGGUAGCUGUUUCAUUUUUCUUCGUUGAAGUCUUCACCUACGGCAUCAUCAAGACAUUUGGUGUCAACAGAGGAUUGAGCAUCA
B9: chr8:143915815:143915916:-|3pUTR|ENSG00000178209|msi1|total|mutant (ssRNA)
RNA: GGGAGUUCUACAGUCCGACGAUCGCCAGGUGCCUUGGAGGGUCCCAAGCUGGGCCCCAGCCCACCCUCCUGUCUUCCCAGGGCCGCCCGCCUGCCAGUCCCCGCUGCACAGGGCAGCUGGGCCCAACCCUGUCUGCCGAGGGCCAACAGAGGAUUGAGCAUCA
B10: chr7:77779054:77779164:+|CDS|ENSG00000187257|unk|FALSE|unique (ssRNA)
RNA: GGGAGUUCUACAGUCCGACGAUCUAAAUUUGAAAAUAGCAACAAAGAUUUAAAGGAAGAAUUGUGCCCUGGAAAUCUAAGUCUAGUUGAUACAAGGCAACACAGUUCAGCACAUUCAAAUCAAGAUAAAAAAGACGAUGACAUCAACAGAGGAUUGAGCAUCA
B11: chr17:18209558:18209659:+|3pUTR|ENSG00000091542|msi1|total|mutant (ssRNA)
RNA: GGGAGUUCUACAGUCCGACGAUCGGCCGCUUCUAUCCACUCAGAUCCUGGAAGGCAGCAAGGUUUUGUGGAUCCCGAUUCAUCCGGAAUGUCUUCUUGUCAGCCAGGCCAGGACCCGGGCUUGCCAAGAGCAGAGGCCCUCCCCAACAGAGGAUUGAGCAUCA
B12: chr15:90931683:90931944:-|CDS|ENSG00000184508|control|control|control (ssRNA)
RNA: GGGAGUUCUACAGUCCGACGAUCGACAAGACUCUGCCCAAGCUGGAGAGAAAGAGGCUGCAGGUGGAGCAAGCGCCCCACAGUAGCCCCGGGGCCAAACUGGUGAAGCUGGCAGACAAGCUGUACAAUCUGAGGGACCUGAAUCAACAGAGGAUUGAGCAUCA
B13: chr7:20412070:20412171:+|3pUTR|ENSG00000105855|msi1|total|mutant (ssRNA)
RNA: GGGAGUUCUACAGUCCGACGAUCCUUUUUUUUUAUAAUAAACUUCCAAGAUUUGCUGUCUUCCAGCACUUGAGUUAAAGUACCCGAUACUGCAUUUUGAUGAAGACUAACCCCAUCUCAUAUUCUACCCUAAAGAGAACUGAACAACAGAGGAUUGAGCAUCA
B14: chr7:88197266:88197367:+|3pUTR|ENSG00000008277|unk|total|mutant (ssRNA)
RNA: GGGAGUUCUACAGUCCGACGAUCCAAAACAUGUGAUAUCCCUUUAACCUGUGCACAGUCUGGAGGCAGUUUUAUUGAGUGAGCCGUUGAGUGAGAGAACAAAAUGCCCAGCAAAACUUCUGGCCUCCACAGUUUGCUGAUGCACAACAGAGGAUUGAGCAUCA

These binders were tested against MSI1 full-length (mouse, UniProt Q61474 1-362) (assay: nsRBNS (natural sequence RNA bind-n-seq); RBNS binding buffer (assumed for nsRBNS): 25 mM Tris pH 7.5, 150 mM KCl, 3 mM MgCl2, 0.01% Triton X-100, 500 ug/ml BSA, 20 U/ml SUPERase-In, 4 C; UNK is unkempt and MSI1 is Musashi-1; names of the RNAs are library labels; protein concentration not given here; high values mean tight binding).
Sequence of UniProt Q61474 (Q61474 whole entry): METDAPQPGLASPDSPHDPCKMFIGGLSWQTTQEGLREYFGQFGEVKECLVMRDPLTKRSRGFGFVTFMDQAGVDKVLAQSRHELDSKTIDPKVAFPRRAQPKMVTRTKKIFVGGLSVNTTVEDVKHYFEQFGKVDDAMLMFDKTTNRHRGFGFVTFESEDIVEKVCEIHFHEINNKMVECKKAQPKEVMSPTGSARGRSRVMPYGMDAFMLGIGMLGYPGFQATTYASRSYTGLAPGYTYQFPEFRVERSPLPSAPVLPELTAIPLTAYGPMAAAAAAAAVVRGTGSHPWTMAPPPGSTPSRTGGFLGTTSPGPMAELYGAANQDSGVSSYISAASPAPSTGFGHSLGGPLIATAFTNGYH
With B1 the binding signal was 0.321 enrichment R. In the case of B2, the binding signal is reported as 0.359 enrichment R. B3 was tested, and the binding signal was 2.68 enrichment R. Binder B4 has a binding signal of 3.46 enrichment R. B5 showed a binding signal of 0.413 enrichment R. For B6, the binding signal was 0.46 enrichment R. Binder B7 has a binding signal of 0.587 enrichment R. B8 gave a binding signal of 0.463 enrichment R. In the case of B9, the binding signal is reported as 0.457 enrichment R. B10 gave a binding signal of 1.22 enrichment R. For B11, the binding signal was 0.486 enrichment R. In the case of B12, the binding signal is reported as 0.446 enrichment R. Work on B13 yielded a binding signal of 0.673 enrichment R. In the case of B14, the binding signal is reported as 0.524 enrichment R.
